# The supplement of paper PMC8728848
# Some of the results follow.
# B1: LFA (Limax flavus) (protein)
# chain: MSVLFLAASFLLLASFELVAAQGCPRQDPGDWIVIQRRLNADVNFYRGWADYKHGFGDLRCNFWLGNEKIHQLTSHGRYKLRVEFTFNNKSYFAEYSTFKILGEADKYKLQVGGYSGNAGDALTFHNGMAFSTNDRDNDADSIDCAKVYHGAWWYKTCHESNLNGKWGSKKYGEGLNWKAKTTFTATATSSLLKIKALK
# Key:
# Test in all cases: glycan array binding signal (z-score within array); higher = stronger binding
# Settings in all cases: glycan notation: IUPAC condensed, linker removed
# Fuc(a1-2)Gal = molecular target: Fuc(a1-2)Gal
# Method in brief: (§1)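 The binding signal is a Z-score computed within each array. Data were drawn from 3228 arrays in the Consortium for Functional Glycomics database, restricted to those with a known protein sequence. Scores were averaged over arrays of the same protein sequence at different concentrations or buffers, and over linkers, and negative values can be taken as non-binding.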
# Fuc(a1-2)Gal(b1-3)GalNAc = molecular target: Fuc(a1-2)Gal(b1-3)GalNAc
# Method in brief: as §1
# [1] = molecular target: Fuc(a1-2)Gal(b1-3)GalNAc(a1-3)[Fuc(a1-2)]Gal(b1-4)Glc
# Method in brief: as §1
# [2] = molecular target: Fuc(a1-2)Gal(b1-3)GalNAc(a1-3)[Fuc(a1-2)]Gal(b1-4)GlcNAc
# Method in brief: as §1
# [3] = molecular target: Fuc(a1-2)Gal(b1-3)GalNAc(b1-3)Gal
# Method in brief: as §1
# [4] = molecular target: Fuc(a1-2)Gal(b1-3)GalNAc(b1-3)Gal(a1-4)Gal(b1-4)Glc
# Method in brief: as §1
# [5] = molecular target: Fuc(a1-2)Gal(b1-3)GalNAc(b1-4)[Neu5Ac(a2-3)]Gal(b1-4)Glc
# Method in brief: as §1
# Fuc(a1-2)Gal(b1-3)GlcNAc = molecular target: Fuc(a1-2)Gal(b1-3)GlcNAc
# Method in brief: as §1
# [6] = molecular target: Fuc(a1-2)Gal(b1-3)GlcNAc(b1-2)Man(a1-3)[Fuc(a1-2)Gal(b1-3)GlcNAc(b1-2)Man(a1-6)]Man(b1-4)GlcNAc(b1-4)GlcNAc
# Method in brief: as §1
# [7] = molecular target: Fuc(a1-2)Gal(b1-3)GlcNAc(b1-2)Man(a1-3)[Fuc(a1-2)Gal(b1-3)GlcNAc(b1-2)Man(a1-6)]Man(b1-4)GlcNAc(b1-4)[Fuc(a1-6)]GlcNAc
# Method in brief: as §1
# [8] = molecular target: Fuc(a1-2)Gal(b1-3)GlcNAc(b1-3)Gal(b1-4)Glc
# Method in brief: as §1
# [9] = molecular target: Fuc(a1-2)Gal(b1-3)GlcNAc(b1-3)GalNAc
# Method in brief: as §1
# [10] = molecular target: Fuc(a1-2)Gal(b1-3)GlcNAc(b1-3)[Fuc(a1-2)Gal(b1-3)GlcNAc(b1-6)]GalNAc
# Method in brief: as §1
# [11] = molecular target: Fuc(a1-2)Gal(b1-3)GlcNAc(b1-3)[Gal(b1-4)GlcNAc(b1-6)]Gal(b1-4)Glc
# Method in brief: as §1
# [12] = molecular target: Fuc(a1-2)Gal(b1-3)GlcNAc(b1-3)[Neu5Ac(a2-6)Gal(b1-4)GlcNAc(b1-6)]Gal(b1-4)Glc
# Method in brief: as §1
# [13] = molecular target: Fuc(a1-2)Gal(b1-3)GlcNAc6S
# Method in brief: as §1
# [14] = molecular target: Fuc(a1-2)Gal(b1-3)[Fuc(a1-4)]GlcNAc
# Method in brief: as §1
# [15] = molecular target: Fuc(a1-2)Gal(b1-3)[Fuc(a1-4)]GlcNAc(b1-2)Man(a1-3)[Fuc(a1-2)Gal(b1-3)[Fuc(a1-4)]GlcNAc(b1-2)Man(a1-3)]Man(b1-4)GlcNAc(b1-4)GlcNAc
# Method in brief: as §1
# [16] = molecular target: Fuc(a1-2)Gal(b1-3)[Fuc(a1-4)]GlcNAc(b1-2)Man(a1-3)[Fuc(a1-2)Gal(b1-3)[Fuc(a1-4)]GlcNAc(b1-2)Man(a1-6)]Man(b1-4)GlcNAc(b1-4)[Fuc(a1-6)]GlcNAc(b1-4)[Fuc(a1-6)]GlcNAc
# Method in brief: as §1
# [17] = molecular target: Fuc(a1-2)Gal(b1-3)[Fuc(a1-4)]GlcNAc(b1-3)[Fuc(a1-3)[Gal(b1-4)]GlcNAc(b1-6)]Gal(b1-4)Glc
# Method in brief: as §1
# [18] = molecular target: Fuc(a1-2)Gal(b1-3)[Fuc(a1-4)]GlcNAc(b1-3)[Gal(b1-4)GlcNAc(b1-6)]Gal(b1-4)Glc
# Method in brief: as §1
# [19] = molecular target: Fuc(a1-2)Gal(b1-4)Fuc(a1-3)]GlcNAc(b1-2)Man(a1-3)[Fuc(a1-2)Gal(b1-4)[Fuc(a1-3)]GlcNAc(b1-2)Man(a1-6)]Man(b1-4)GlcNAc(b1-4)GlcNAc
# Method in brief: as §1
# Fuc(a1-2)Gal(b1-4)Glc = molecular target: Fuc(a1-2)Gal(b1-4)Glc
# Method in brief: as §1
# Fuc(a1-2)Gal(b1-4)Glc6S = molecular target: Fuc(a1-2)Gal(b1-4)Glc6S
# Method in brief: as §1
# Fuc(a1-2)Gal(b1-4)GlcNAc = molecular target: Fuc(a1-2)Gal(b1-4)GlcNAc
# Method in brief: as §1
# [20] = molecular target: Fuc(a1-2)Gal(b1-4)GlcNAc(b1-2)Man
# Method in brief: as §1
# [21] = molecular target: Fuc(a1-2)Gal(b1-4)GlcNAc(b1-2)Man(a1-3)[Fuc(a1-2)Gal(b1-4)GlcNAc(b1-2)Man(a1-6)]Man(b1-4)GlcNAc(b1-4)GlcNAc
# Method in brief: as §1
# [22] = molecular target: Fuc(a1-2)Gal(b1-4)GlcNAc(b1-2)Man(a1-3)[Fuc(a1-2)Gal(b1-4)GlcNAc(b1-2)Man(a1-6)]Man(b1-4)GlcNAc(b1-4)[Fuc(a1-6)]GlcNAc
# Method in brief: as §1
# [23] = molecular target: Fuc(a1-2)Gal(b1-4)GlcNAc(b1-2)[Fuc(a1-2)Gal(b1-4)GlcNAc(b1-4)]Man(a1-3)[Fuc(a1-2)Gal(b1-4)GlcNAc(b1-2)Man(a1-6)]Man(b1-4)GlcNAc(b1-4)GlcNAc
# Method in brief: as §1
# [24] = molecular target: Fuc(a1-2)Gal(b1-4)GlcNAc(b1-3)Gal(b1-4)GlcNAc
# Method in brief: as §1
binder,measurement,setting,value
B1,glycan array binding signal (z-score),Fuc(a1-2)Gal,-0.242
same,glycan array binding signal (z-score),Fuc(a1-2)Gal(b1-3)GalNAc,-0.289
same,glycan array binding signal (z-score),[1],-0.216
same,glycan array binding signal (z-score),[2],-0.211
same,glycan array binding signal (z-score),[3],0.278
same,glycan array binding signal (z-score),[4],-0.304
same,glycan array binding signal (z-score),[5],0.072
same,glycan array binding signal (z-score),Fuc(a1-2)Gal(b1-3)GlcNAc,-0.302
same,glycan array binding signal (z-score),[6],0.702
same,glycan array binding signal (z-score),[7],-0.033
same,glycan array binding signal (z-score),[8],-0.177
same,glycan array binding signal (z-score),[9],-0.347
same,glycan array binding signal (z-score),[10],-0.22
same,glycan array binding signal (z-score),[11],-0.37
same,glycan array binding signal (z-score),[12],-0.319
same,glycan array binding signal (z-score),[13],-0.167
same,glycan array binding signal (z-score),[14],-0.313
same,glycan array binding signal (z-score),[15],0.682
same,glycan array binding signal (z-score),[16],-0.337
same,glycan array binding signal (z-score),[17],-0.134
same,glycan array binding signal (z-score),[18],-0.345
same,glycan array binding signal (z-score),[19],1.54
same,glycan array binding signal (z-score),Fuc(a1-2)Gal(b1-4)Glc,-0.315
same,glycan array binding signal (z-score),Fuc(a1-2)Gal(b1-4)Glc6S,-0.296
same,glycan array binding signal (z-score),Fuc(a1-2)Gal(b1-4)GlcNAc,-0.285
same,glycan array binding signal (z-score),[20],-0.352
same,glycan array binding signal (z-score),[21],0.771
same,glycan array binding signal (z-score),[22],0.6
same,glycan array binding signal (z-score),[23],0.009
same,glycan array binding signal (z-score),[24],-0.293
